Laboratory results from the supplement of paper PMC8728848.
This is one part of the list.

Experiments:
Experiment in all cases: glycan array binding signal (z-score within array); higher = stronger binding
Conditions in all cases: glycan notation: IUPAC condensed, linker removed
Neu5Ac(a2-3)GalNAc = molecular target: Neu5Ac(a2-3)GalNAc
Outline: (§1)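 The binding signal is a Z-score computed within each array and averaged over linkers. Arrays of the same protein sequence at different concentrations or buffers were also averaged together. Data originate from 3228 arrays in the Consortium for Functional Glycomics database, kept only where the protein sequence was available.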

[1] = molecular target: Neu5Ac(a2-3)GalNAc(b1-4)GlcNAc
Outline: as §1

[2] = molecular target: Neu5Ac(a2-3)[GalNAc(b1-4)]Gal(b1-4)Glc
Outline: as §1

[3] = molecular target: Neu5Ac(a2-3)[GalNAc(b1-4)]Gal(b1-4)GlcNAc
Outline: as §1

[4] = molecular target: Neu5Ac(a2-3)[GalNAc(b1-4)]Gal(b1-4)GlcNAc(b1-3)GalNAc
Outline: as §1

[5] = molecular target: Neu5Ac(a2-3)[Neu5Ac(a2-6)]GalNAc
Outline: as §1

Neu5Ac(a2-6)Gal = molecular target: Neu5Ac(a2-6)Gal
Outline: as §1

[6] = molecular target: Neu5Ac(a2-6)Gal(b1-3)GlcNAc(b1-3)[Gal(b1-4)GlcNAc(b1-6)]Gal(b1-4)Glc
Outline: as §1

Neu5Ac(a2-6)Gal(b1-4)Glc = molecular target: Neu5Ac(a2-6)Gal(b1-4)Glc
Outline: as §1

[7] = molecular target: Neu5Ac(a2-6)Gal(b1-4)GlcNAc
Outline: as §1

[8] = molecular target: Neu5Ac(a2-6)Gal(b1-4)GlcNAc(b1-2)Man
Outline: as §1

[9] = molecular target: Neu5Ac(a2-6)Gal(b1-4)GlcNAc(b1-2)Man(a1-3)Man(b1-4)GlcNAc(b1-4)GlcNAc
Outline: as §1

[10] = molecular target: Neu5Ac(a2-6)Gal(b1-4)GlcNAc(b1-2)Man(a1-3)[Gal(b1-4)GlcNAc(b1-2)Man(a1-6)]Man(b1-4)GlcNAc(b1-4)GlcNAc
Outline: as §1

[11] = molecular target: Neu5Ac(a2-6)Gal(b1-4)GlcNAc(b1-2)Man(a1-3)[GlcNAc(b1-2)Man(a1-6)]Man(b1-4)GlcNAc(b1-4)GlcNAc
Outline: as §1

[12] = molecular target: Neu5Ac(a2-6)Gal(b1-4)GlcNAc(b1-2)Man(a1-3)[GlcNAc(b1-4)][Neu5Ac(a2-6)Gal(b1-4)GlcNAc(b1-2)Man(a1-6)]Man(b1-4)GlcNAc(b1-4)GlcNAc
Outline: as §1

[13] = molecular target: Neu5Ac(a2-6)Gal(b1-4)GlcNAc(b1-2)Man(a1-3)[Man(a1-6)]Man(b1-4)GlcNAc(b1-4)GlcNAc
Outline: as §1

[14] = molecular target: Neu5Ac(a2-6)Gal(b1-4)GlcNAc(b1-2)Man(a1-3)[Neu5Ac(a2-3)Gal(b1-4)GlcNAc(b1-2)Man(a1-6)]Man(b1-4)GlcNAc(b1-4)GlcNAc
Outline: as §1

[15] = molecular target: Neu5Ac(a2-6)Gal(b1-4)GlcNAc(b1-2)Man(a1-3)[Neu5Ac(a2-6)Gal(b1-4)GlcNAc(b1-2)Man(a1-6)]Man(b1-4)GlcNAc(b1-4)GlcNAc
Outline: as §1

[16] = molecular target: Neu5Ac(a2-6)Gal(b1-4)GlcNAc(b1-2)Man(a1-3)[Neu5Ac(a2-6)Gal(b1-4)GlcNAc(b1-2)Man(a1-6)]Man(b1-4)GlcNAc(b1-4)[Fuc(a1-6)]GlcNAc
Outline: as §1

[17] = molecular target: Neu5Ac(a2-6)Gal(b1-4)GlcNAc(b1-2)Man(a1-6)Man(b1-4)GlcNAc(b1-4)GlcNAc
Outline: as §1

[18] = molecular target: Neu5Ac(a2-6)Gal(b1-4)GlcNAc(b1-2)Man(a1-6)[Gal(b1-4)GlcNAc(b1-2)Man(a1-3)]Man(b1-4)GlcNAc(b1-4)GlcNAc
Outline: as §1

[19] = molecular target: Neu5Ac(a2-6)Gal(b1-4)GlcNAc(b1-2)Man(a1-6)[GlcNAc(b1-2)Man(a1-3)]Man(b1-4)GlcNAc(b1-4)GlcNAc
Outline: as §1

[20] = molecular target: Neu5Ac(a2-6)Gal(b1-4)GlcNAc(b1-2)Man(a1-6)[Man(a1-3)]Man(b1-4)GlcNAc(b1-4)GlcNAc
Outline: as §1

[21] = molecular target: Neu5Ac(a2-6)Gal(b1-4)GlcNAc(b1-2)[Neu5Ac(a2-6)Gal(b1-4)GlcNAc(b1-4)]Man(a1-3)[GlcNAc(b1-4)][Neu5Ac(a2-6)Gal(b1-4)GlcNAc(b1-2)[Neu5Ac(a2-6)Gal(b1-4)GlcNAc(b1-6)]Man(a1-6)]Man(b1-4)GlcNAc(b1-4)GlcNAc
Outline: as §1

[22] = molecular target: Neu5Ac(a2-6)Gal(b1-4)GlcNAc(b1-2)[Neu5Ac(a2-6)Gal(b1-4)GlcNAc(b1-4)]Man(a1-3)[GlcNAc(b1-4)][Neu5Ac(a2-6)Gal(b1-4)GlcNAc(b1-4)Man(a1-6)]Man(b1-4)GlcNAc(b1-4)GlcNAc
Outline: as §1

[23] = molecular target: Neu5Ac(a2-6)Gal(b1-4)GlcNAc(b1-2)[Neu5Ac(a2-6)Gal(b1-4)GlcNAc(b1-6)]Man(a1-6)[Neu5Ac(a2-6)Gal(b1-4)GlcNAc(b1-2)Man(a1-3)][GlcNAc(b1-4)]Man(b1-4)GlcNAc(b1-4)GlcNAc
Outline: as §1

[24] = molecular target: Neu5Ac(a2-6)Gal(b1-4)GlcNAc(b1-3)Gal(b1-3)GlcNAc
Outline: as §1

[25] = molecular target: Neu5Ac(a2-6)Gal(b1-4)GlcNAc(b1-3)Gal(b1-4)GlcNAc
Outline: as §1

[26] = molecular target: Neu5Ac(a2-6)Gal(b1-4)GlcNAc(b1-3)Gal(b1-4)GlcNAc(b1-2)Man(a1-3)[Neu5Ac(a2-6)Gal(b1-4)GlcNAc(b1-3)Gal(b1-4)GlcNAc(b1-2)Man(a1-6)]GalNAc
Outline: as §1

[27] = molecular target: Neu5Ac(a2-6)Gal(b1-4)GlcNAc(b1-3)Gal(b1-4)GlcNAc(b1-3)Gal(b1-4)GlcNAc
Outline: as §1

[28] = molecular target: Neu5Ac(a2-6)Gal(b1-4)GlcNAc(b1-3)Gal(b1-4)GlcNAc(b1-3)Gal(b1-4)GlcNAc(b1-2)Man(a1-3)[Neu5Ac(a2-6)Gal(b1-4)GlcNAc(b1-3)Gal(b1-4)GlcNAc(b1-3)Gal(b1-4)GlcNAc(b1-2)Man(a1-6)]GalNAc
Outline: as §1

[29] = molecular target: Neu5Ac(a2-6)Gal(b1-4)GlcNAc(b1-3)Gal(b1-4)GlcNAc(b1-3)GalNAc
Outline: as §1

[30] = molecular target: Neu5Ac(a2-6)Gal(b1-4)GlcNAc(b1-3)Gal(b1-4)GlcNAc(b1-3)[Neu5Ac(a2-6)Gal(b1-4)GlcNAc(b1-3)Gal(b1-4)GlcNAc(b1-6)]GalNAc
Outline: as §1

[31] = molecular target: Neu5Ac(a2-6)Gal(b1-4)GlcNAc(b1-3)Gal(b1-4)GlcNAc(b1-6)[Gal(b1-3)]GalNAc
Outline: as §1

[32] = molecular target: Neu5Ac(a2-6)Gal(b1-4)GlcNAc(b1-3)Gal(b1-4)[Fuc(a1-3)]GlcNAc(b1-3)Gal(b1-4)[Fuc(a1-3)]GlcNAc
Outline: as §1

[33] = molecular target: Neu5Ac(a2-6)Gal(b1-4)GlcNAc(b1-3)GalNAc
Outline: as §1

[34] = molecular target: Neu5Ac(a2-6)Gal(b1-4)GlcNAc(b1-3)[Neu5Ac(a2-6)Gal(b1-4)GlcNAc(b1-6)]GalNAc
Outline: as §1

B1: GS13686A-pdi-553-26-553 (Parabacteroides distasonis) (protein)
chain: NENPDKPTDDVNYNMNEPRLASTLRGGLIIEGNVEQRLKPLQIDFYSQMTVDGGGWGTKNYIQDDEWNNLVWEEYLKQIASINIVIRSLTEKDKDAYANTIAFARIWRVYVHTLAADKFGPMPFPAYEIVEANPPYKSLKDIYDEYFRELDAAINGFNDSAQPIFSDAGIDLIYKNDVSKWKRFANSLRLRLAVRLTEVDQEKCIAEANAAISSPAGLISDKADNAYMPPKADGSWGQDYNYTMFQITWSGPICMSKSVEKLVTNIGGVAWPQGVVNQTSGVAVSSVHPEKVDPRAPKIFQPGIENGDWKGLVYGPKAEEANTGIYQSKQCAELGFIIKDGYPYKSRPYDLFLSEEVHFLKAELYARGFIAGDAKSEYEAGVRASFATWGVTSEVDDYLTSTEKNEAGTSARYDDQQGAGNTALEKIITQKYIAGIPDLAQEGWNDKRRLNLPRLDVAVYRDQAVYNNNDKDILKSANFIKRMRYPTKESLINATEYEKGKSMLGGKGDIVSTPLWWDKNSNYCTSSK
Neu5Ac(a2-3)GalNAc
  glycan array binding signal (z-score): -0.339
[1]
  glycan array binding signal (z-score): 0.15
[2]
  glycan array binding signal (z-score): 0.734
[3]
  glycan array binding signal (z-score): -0.009
[4]
  glycan array binding signal (z-score): -0.439
[5]
  glycan array binding signal (z-score): -0.238
Neu5Ac(a2-6)Gal
  glycan array binding signal (z-score): -0.025
[6]
  glycan array binding signal (z-score): 2
Neu5Ac(a2-6)Gal(b1-4)Glc
  glycan array binding signal (z-score): -0.183
[7]
  glycan array binding signal (z-score): -0.186
[8]
  glycan array binding signal (z-score): -0.316
[9]
  glycan array binding signal (z-score): 0.502
[10]
  glycan array binding signal (z-score): 0.682
[11]
  glycan array binding signal (z-score): -0.222
[12]
  glycan array binding signal (z-score): -0.1
[13]
  glycan array binding signal (z-score): 0.341
[14]
  glycan array binding signal (z-score): -0.389
[15]
  glycan array binding signal (z-score): -0.23
[16]
  glycan array binding signal (z-score): 0.391
[17]
  glycan array binding signal (z-score): -0.085
[18]
  glycan array binding signal (z-score): 0.126
[19]
  glycan array binding signal (z-score): 0.032
[20]
  glycan array binding signal (z-score): -0.072
[21]
  glycan array binding signal (z-score): -0.216
[22]
  glycan array binding signal (z-score): -0.066
[23]
  glycan array binding signal (z-score): 0.625
[24]
  glycan array binding signal (z-score): -0.181
[25]
  glycan array binding signal (z-score): -0.315
[26]
  glycan array binding signal (z-score): -0.126
[27]
  glycan array binding signal (z-score): 0.058
[28]
  glycan array binding signal (z-score): -0.058
[29]
  glycan array binding signal (z-score): -0.222
[30]
  glycan array binding signal (z-score): -0.162
[31]
  glycan array binding signal (z-score): -0.234
[32]
  glycan array binding signal (z-score): -0.092
[33]
  glycan array binding signal (z-score): -0.218
[34]
  glycan array binding signal (z-score): 0.115
